What all share (assay): universal protein binding microarray (PBM)
Holding throughout (conditions): transcription factors of Arabidopsis thaliana; high values mean tight binding; most listed sequences are background and not binding sites; double strand, one strand shown

For test [1], the target named is T1, GST-ANAC092(1-176) (UniProt Q9FKA0).
T1 sequence: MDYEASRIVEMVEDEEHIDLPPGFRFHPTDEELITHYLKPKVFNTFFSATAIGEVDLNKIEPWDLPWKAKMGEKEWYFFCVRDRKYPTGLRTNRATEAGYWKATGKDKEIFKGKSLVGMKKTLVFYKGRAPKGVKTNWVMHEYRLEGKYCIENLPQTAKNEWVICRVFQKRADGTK

The target of test [2] is GST-NTL6(1-168) (UniProt Q9SCK6).
For test [3], the target named is T2, GST-ANAC019 NAC domain (UniProt Q9C932).
T2 sequence: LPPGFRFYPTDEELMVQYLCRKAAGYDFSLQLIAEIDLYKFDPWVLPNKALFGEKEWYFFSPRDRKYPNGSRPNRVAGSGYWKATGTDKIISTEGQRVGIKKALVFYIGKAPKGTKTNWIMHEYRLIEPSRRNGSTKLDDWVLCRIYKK

Test [4] addresses T3, GST-ANAC055(1-171) (UniProt Q9LDY8).
T3 sequence: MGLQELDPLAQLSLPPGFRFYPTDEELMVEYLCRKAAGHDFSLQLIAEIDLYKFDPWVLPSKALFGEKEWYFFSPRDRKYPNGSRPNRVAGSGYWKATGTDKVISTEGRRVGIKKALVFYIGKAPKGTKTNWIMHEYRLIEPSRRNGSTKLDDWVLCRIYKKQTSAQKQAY

The target of test [5] is T4, GST-ATAF1 NAC domain (UniProt Q39013).
T4 sequence: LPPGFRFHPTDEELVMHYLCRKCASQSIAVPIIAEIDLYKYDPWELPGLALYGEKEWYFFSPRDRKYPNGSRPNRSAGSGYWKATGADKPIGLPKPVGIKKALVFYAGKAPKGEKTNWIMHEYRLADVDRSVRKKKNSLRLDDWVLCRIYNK

Test [6] has as its target T5, GST-ANAC092(1-285) full length (UniProt Q9FKA0).
T5 sequence: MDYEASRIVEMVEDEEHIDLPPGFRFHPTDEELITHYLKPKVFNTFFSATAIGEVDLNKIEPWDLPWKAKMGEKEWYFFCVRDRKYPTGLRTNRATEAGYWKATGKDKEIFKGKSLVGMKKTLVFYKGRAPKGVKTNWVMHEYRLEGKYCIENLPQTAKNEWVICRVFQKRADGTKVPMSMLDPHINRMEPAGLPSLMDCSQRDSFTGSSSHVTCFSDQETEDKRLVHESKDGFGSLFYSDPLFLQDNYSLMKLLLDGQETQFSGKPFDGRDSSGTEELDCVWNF

Test [7] concerns the target T6, GST-NAP(1-166) (UniProt O49255).
T6 sequence: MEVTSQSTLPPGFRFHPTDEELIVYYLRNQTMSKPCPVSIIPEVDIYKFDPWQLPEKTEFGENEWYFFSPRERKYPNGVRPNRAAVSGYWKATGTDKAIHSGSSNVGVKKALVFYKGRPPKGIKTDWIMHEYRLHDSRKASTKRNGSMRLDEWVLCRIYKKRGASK

Test [8] concerns the target T7, GST-NST2(1-184) (UniProt Q9M274).
T7 sequence: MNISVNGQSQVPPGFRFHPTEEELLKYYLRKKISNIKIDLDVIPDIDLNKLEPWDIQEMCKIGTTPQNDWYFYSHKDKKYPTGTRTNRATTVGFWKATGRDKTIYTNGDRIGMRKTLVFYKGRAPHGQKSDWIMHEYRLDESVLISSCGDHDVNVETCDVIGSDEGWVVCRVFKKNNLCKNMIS

The target in test [9] is T8, GST-NTL8 NAC domain (UniProt Q9XIN7).
T8 sequence: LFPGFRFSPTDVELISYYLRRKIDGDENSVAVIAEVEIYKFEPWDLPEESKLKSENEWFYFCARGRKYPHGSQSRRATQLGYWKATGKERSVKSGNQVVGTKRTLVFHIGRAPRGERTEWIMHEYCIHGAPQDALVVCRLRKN

For test [10], the target named is T9, GST-SND1(1-203) (UniProt Q9LPI7).
T9 sequence: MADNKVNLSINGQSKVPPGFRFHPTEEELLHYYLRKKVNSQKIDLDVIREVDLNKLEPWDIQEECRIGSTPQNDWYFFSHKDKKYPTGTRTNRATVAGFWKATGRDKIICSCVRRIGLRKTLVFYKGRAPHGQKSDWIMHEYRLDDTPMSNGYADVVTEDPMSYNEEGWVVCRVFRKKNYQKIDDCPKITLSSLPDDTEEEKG

Test [11] has as its target T10, GST-VND3 NAC domain (UniProt Q9FH59).
T10 sequence: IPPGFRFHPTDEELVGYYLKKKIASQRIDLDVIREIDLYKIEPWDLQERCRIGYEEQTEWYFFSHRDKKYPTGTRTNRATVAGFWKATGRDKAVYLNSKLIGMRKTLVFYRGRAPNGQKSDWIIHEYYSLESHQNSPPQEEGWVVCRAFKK

In test [12] the target is T11, GST-VND7 NAC domain (UniProt Q9C8W9).
T11 sequence: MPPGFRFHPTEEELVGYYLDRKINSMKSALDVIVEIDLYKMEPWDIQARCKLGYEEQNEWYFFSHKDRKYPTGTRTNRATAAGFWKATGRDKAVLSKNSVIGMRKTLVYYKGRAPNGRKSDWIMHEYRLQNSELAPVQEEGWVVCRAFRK

Test [13] concerns the target T12, GST-VOZ2 (Arabidopsis thaliana) (UniProt Q9SLB9).
T12 sequence: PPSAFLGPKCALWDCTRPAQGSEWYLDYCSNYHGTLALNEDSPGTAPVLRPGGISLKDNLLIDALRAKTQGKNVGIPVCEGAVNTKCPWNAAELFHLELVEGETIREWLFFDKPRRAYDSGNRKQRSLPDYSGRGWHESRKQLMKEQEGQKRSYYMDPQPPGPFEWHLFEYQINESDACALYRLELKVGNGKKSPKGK

This is a selection; strong and weak results do not stand in their true shares. For some assays here: At the low end of the ranking, values are background and their order means little. This is one part of the list. For some assays here: Construct or isoform of the protein are uncertain.

Chain of UniProt Q9SCK6 (Q9SCK6 1-168): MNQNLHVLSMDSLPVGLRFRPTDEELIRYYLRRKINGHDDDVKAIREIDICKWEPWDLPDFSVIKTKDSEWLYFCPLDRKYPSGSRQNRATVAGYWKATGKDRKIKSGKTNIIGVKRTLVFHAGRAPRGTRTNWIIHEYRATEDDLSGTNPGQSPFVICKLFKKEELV

As for CGGTCCAC, the binding signal in [1] is -0.0598 E-score; in test [2], -0.128 E-score; in test [3], 0.00728 E-score; in [4], -0.207 E-score; in [5], -0.0765 E-score; in test [6] it was -0.0794 E-score. In addition, the binding signal in test [7] was -0.152 E-score; in test [8] it was -0.149 E-score; in test [9], -0.0053 E-score; in test [10] it was -0.0731 E-score; in test [11] it was -0.171 E-score; in test [12], -0.123 E-score. Moreover, the binding signal in test [13] is 0.0769 E-score.
In the case of CGGGGTCA, the binding signal in test [1] was -0.0783 E-score; in test [2], -0.0423 E-score; in test [3], 0.00449 E-score; in test [4] it was -0.223 E-score; in [5], -0.158 E-score; in test [6] it was -0.0595 E-score. Also, the binding signal in [7] was -0.1 E-score; in test [8], -0.0117 E-score; in test [9] it was 0.107 E-score; in test [10], -0.0173 E-score; in test [11] it was -0.269 E-score; in [12], -0.185 E-score. The same sequence gave a binding signal in test [13] of 0.0444 E-score.
As to GCTGACCC, the binding signal is -0.103 E-score in test [1]; -0.173 E-score in [2]; -0.198 E-score in test [3]; -0.135 E-score in test [4]; -0.138 E-score in [5]; -0.243 E-score in test [6]. In addition, the binding signal in test [7] is -0.117 E-score; in test [8], -0.0988 E-score; in [9] it was -0.00172 E-score; in [10], -0.13 E-score; in test [11] it was -0.23 E-score; in test [12], -0.173 E-score. Further, the binding signal in test [13] is -0.0151 E-score.
Consider GAGTCAGA, for which the binding signal in test [1] was -0.186 E-score; in [2] it was -0.124 E-score; in [3] it was -0.0967 E-score; in test [4], -0.0923 E-score; in [5] it was -0.0121 E-score; in test [6], -0.115 E-score. The binding signal is -0.134 E-score in test [7]; -0.121 E-score in test [8]; -0.162 E-score in test [9]; -0.0641 E-score in [10]; -0.183 E-score in test [11]; -0.173 E-score in test [12]. Further, in test [13], the binding signal is -0.0532 E-score.
In the case of GCCGGTCA, the binding signal is -0.158 E-score in test [1]; -0.0767 E-score in test [2]; -0.0666 E-score in test [3]; -0.245 E-score in [4]; -0.156 E-score in [5]; -0.163 E-score in test [6]. In addition, the binding signal in test [7] was -0.166 E-score; in test [8], -0.154 E-score; in test [9], -0.143 E-score; in test [10], -0.0859 E-score; in [11], -0.235 E-score; in test [12] it was -0.181 E-score. Further, the binding signal in test [13] was -0.0458 E-score.
In the case of GGAGTCAA, the binding signal in test [1] is 0.00541 E-score; in [2] it was 0.00373 E-score; in test [3], -0.00155 E-score; in test [4], 0.0115 E-score; in [5], -0.0113 E-score; in test [6], -0.108 E-score. The binding signal in [7] is -0.103 E-score; in test [8], -0.0995 E-score; in test [9], -0.0366 E-score; in [10], -0.00492 E-score; in test [11], -0.0255 E-score; in [12] it was -0.075 E-score. The binding signal in test [13] is -0.0808 E-score.
Turning to GTCAGCAA, the binding signal was -0.0305 E-score in test [1]; -0.0148 E-score in test [2]; -0.00771 E-score in test [3]; -0.065 E-score in [4]; -0.0953 E-score in test [5]; -0.066 E-score in [6]. The binding signal was -0.0489 E-score in test [7]; 0.00323 E-score in test [8]; -0.0618 E-score in [9]; 0.0171 E-score in test [10]; -0.0408 E-score in test [11]; -0.092 E-score in test [12]. The sequence further yielded a binding signal in test [13] of -0.0687 E-score.
For TATGACCA, the binding signal in [1] is -0.0882 E-score; in test [2], -0.0443 E-score; in test [3], -0.0807 E-score; in test [4], -0.143 E-score; in [5], -0.114 E-score; in [6], -0.0497 E-score. In addition, the binding signal in test [7] is -0.00856 E-score; in [8], -0.194 E-score; in [9], -0.0429 E-score; in test [10] it was -0.137 E-score; in [11], 0.117 E-score; in test [12], -0.0257 E-score. In addition, in [13], the binding signal was -0.104 E-score.
As for CATTGACC, the binding signal is -0.000285 E-score in test [1]; 0.00504 E-score in test [2]; 0.00368 E-score in [3]; -0.0766 E-score in test [4]; -0.084 E-score in test [5]; -0.122 E-score in test [6]. For the same sequence, the binding signal was -0.0046 E-score in [7]; -0.0993 E-score in test [8]; -0.0557 E-score in [9]; -0.0933 E-score in [10]; -0.163 E-score in test [11]; -0.131 E-score in test [12]. Moreover, in test [13], the binding signal was determined as 0.0718 E-score.
In the case of AGTCAAGC, the binding signal in test [1] was -0.00618 E-score; in test [2], -0.0918 E-score; in test [3], 0.0495 E-score; in test [4], 0.0126 E-score; in [5], 0.0279 E-score; in [6], 0.0135 E-score. In addition, the binding signal in [7] was -0.133 E-score; in [8] it was -0.0708 E-score; in [9] it was 0.0828 E-score; in test [10], -0.0687 E-score; in test [11], 0.00671 E-score; in test [12], -0.0699 E-score. The same sequence registered a binding signal in [13] of -0.211 E-score.
Consider ATGGTCAG, for which the binding signal in test [1] is -0.209 E-score; in test [2] it was -0.172 E-score; in test [3], -0.0403 E-score; in test [4], -0.0765 E-score; in [5], -0.199 E-score; in [6] it was -0.0404 E-score. The binding signal is -0.0671 E-score in test [7]; -0.139 E-score in test [8]; -0.145 E-score in [9]; -0.0826 E-score in [10]; -0.0993 E-score in test [11]; -0.0469 E-score in [12]. Further, in [13], the binding signal is -0.0457 E-score.

Values taken from paper PMC4081100.
